PMC4737136
Results are given in words; binding and its absence hold for the method and conditions named. Binding seen in cells or lysates may run through a third protein. Some results given as binding are weak or reduced against the parent protein; the word gives no strength. For some of these results: Sequences can lack the tags named with a protein.

Protein sequences, listed by entry. Tags and fused reporters are not part of them.
UniProt P51003: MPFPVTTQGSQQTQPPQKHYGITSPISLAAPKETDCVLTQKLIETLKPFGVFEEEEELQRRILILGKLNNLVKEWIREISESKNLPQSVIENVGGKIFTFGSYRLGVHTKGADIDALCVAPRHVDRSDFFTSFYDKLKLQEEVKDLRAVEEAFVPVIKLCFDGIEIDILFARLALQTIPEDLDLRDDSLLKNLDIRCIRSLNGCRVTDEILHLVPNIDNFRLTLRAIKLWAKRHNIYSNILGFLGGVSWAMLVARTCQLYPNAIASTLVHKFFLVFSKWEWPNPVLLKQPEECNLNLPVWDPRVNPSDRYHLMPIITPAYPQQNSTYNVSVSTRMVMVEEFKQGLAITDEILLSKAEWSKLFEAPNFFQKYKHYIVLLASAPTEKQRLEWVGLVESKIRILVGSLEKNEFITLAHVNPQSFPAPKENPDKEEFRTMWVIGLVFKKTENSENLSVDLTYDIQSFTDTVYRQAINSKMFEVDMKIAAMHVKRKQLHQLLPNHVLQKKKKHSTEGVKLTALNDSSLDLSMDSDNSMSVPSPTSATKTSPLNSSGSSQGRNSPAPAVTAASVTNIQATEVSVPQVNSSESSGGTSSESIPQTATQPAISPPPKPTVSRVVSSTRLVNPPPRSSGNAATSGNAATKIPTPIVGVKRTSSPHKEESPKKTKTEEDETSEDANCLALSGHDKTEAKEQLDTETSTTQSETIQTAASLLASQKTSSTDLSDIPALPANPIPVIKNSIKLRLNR
UniProt O95639: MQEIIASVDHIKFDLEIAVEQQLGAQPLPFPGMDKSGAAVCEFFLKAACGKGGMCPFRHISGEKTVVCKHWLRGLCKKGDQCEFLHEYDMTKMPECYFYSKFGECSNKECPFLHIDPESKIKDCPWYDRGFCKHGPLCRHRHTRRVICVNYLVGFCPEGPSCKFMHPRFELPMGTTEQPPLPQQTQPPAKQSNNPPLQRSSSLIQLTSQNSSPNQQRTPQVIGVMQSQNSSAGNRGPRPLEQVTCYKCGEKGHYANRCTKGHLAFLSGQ
UniProt Q99755: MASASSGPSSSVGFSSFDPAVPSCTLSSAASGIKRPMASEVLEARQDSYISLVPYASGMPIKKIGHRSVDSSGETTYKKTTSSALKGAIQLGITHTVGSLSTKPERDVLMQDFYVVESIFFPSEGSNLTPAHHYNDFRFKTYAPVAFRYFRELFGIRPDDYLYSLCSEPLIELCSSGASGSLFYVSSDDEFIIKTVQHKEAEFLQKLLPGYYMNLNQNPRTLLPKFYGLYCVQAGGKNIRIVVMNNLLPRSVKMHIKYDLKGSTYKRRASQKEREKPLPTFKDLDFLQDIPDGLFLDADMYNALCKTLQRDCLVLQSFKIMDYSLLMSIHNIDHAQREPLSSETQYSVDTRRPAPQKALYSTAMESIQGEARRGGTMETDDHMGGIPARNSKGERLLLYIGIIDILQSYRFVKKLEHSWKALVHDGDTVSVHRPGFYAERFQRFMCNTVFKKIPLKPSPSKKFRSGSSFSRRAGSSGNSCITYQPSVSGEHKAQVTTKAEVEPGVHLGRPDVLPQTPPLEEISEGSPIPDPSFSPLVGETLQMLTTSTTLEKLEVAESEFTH

T1: GST-Star-PAP (Speckle targeted PIPKIα regulated poly (A) polymerase) (UniProt Q9H6E5)
T1 sequence: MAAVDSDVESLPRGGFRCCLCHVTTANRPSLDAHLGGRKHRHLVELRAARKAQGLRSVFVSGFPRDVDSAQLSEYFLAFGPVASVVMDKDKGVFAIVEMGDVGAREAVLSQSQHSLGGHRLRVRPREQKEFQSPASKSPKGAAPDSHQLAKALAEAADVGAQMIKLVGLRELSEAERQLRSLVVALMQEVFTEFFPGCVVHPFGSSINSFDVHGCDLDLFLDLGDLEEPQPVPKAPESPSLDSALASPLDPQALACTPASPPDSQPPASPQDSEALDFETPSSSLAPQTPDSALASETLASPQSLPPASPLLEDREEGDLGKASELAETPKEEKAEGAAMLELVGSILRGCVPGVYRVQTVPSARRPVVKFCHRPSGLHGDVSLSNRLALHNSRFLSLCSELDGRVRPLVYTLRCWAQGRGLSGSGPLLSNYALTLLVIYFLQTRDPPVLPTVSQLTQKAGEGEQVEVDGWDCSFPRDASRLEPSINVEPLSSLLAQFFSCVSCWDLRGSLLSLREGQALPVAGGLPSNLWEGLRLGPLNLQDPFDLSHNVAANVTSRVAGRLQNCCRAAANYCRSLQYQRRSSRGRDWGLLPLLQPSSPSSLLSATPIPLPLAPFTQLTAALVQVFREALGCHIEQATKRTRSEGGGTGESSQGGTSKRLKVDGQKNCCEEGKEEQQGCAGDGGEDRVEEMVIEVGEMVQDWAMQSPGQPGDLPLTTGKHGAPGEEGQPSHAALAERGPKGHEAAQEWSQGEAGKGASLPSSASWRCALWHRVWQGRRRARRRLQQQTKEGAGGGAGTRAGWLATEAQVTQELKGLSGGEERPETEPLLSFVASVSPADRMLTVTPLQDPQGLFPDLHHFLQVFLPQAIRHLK

B1: CPSF-160 (cleavage and polyadenylation specificity factor 160 kilodalton subunit) (protein, UniProt Q10570 1-1443)
chain: MYAVYKQAHPPTGLEFSMYCNFFNNSERNLVVAGTSQLYVYRLNRDAEALTKNDRSTEGKAHREKLELAASFSFFGNVMSMASVQLAGAKRDALLLSFKDAKLSVVEYDPGTHDLKTLSLHYFEEPELRDGFVQNVHTPRVRVDPDGRCAAMLVYGTRLVVLPFRRESLAEEHEGLVGEGQRSSFLPSYIIDVRALDEKLLNIIDLQFLHGYYEPTLLILFEPNQTWPGRVAVRQDTCSIVAISLNITQKVHPVIWSLTSLPFDCTQALAVPKPIGGVVVFAVNSLLYLNQSVPPYGVALNSLTTGTTAFPLRTQEGVRITLDCAQATFISYDKMVISLKGGEIYVLTLITDGMRSVRAFHFDKAAASVLTTSMVTMEPGYLFLGSRLGNSLLLKYTEKLQEPPASAVREAADKEEPPSKKKRVDATAGWSAAGKSVPQDEVDEIEVYGSEAQSGTQLATYSFEVCDSILNIGPCANAAVGEPAFLSEEFQNSPEPDLEIVVCSGHGKNGALSVLQKSIRPQVVTTFELPGCYDMWTVIAPVRKEEEDNPKGEGTEQEPSTTPEADDDGRRHGFLILSREDSTMILQTGQEIMELDTSGFATQGPTVFAGNIGDNRYIVQVSPLGIRLLEGVNQLHFIPVDLGAPIVQCAVADPYVVIMSAEGHVTMFLLKSDSYGGRHHRLALHKPPLHHQSKVITLCLYRDLSGMFTTESRLGGARDELGGRSGPEAEGLGSETSPTVDDEEEMLYGDSGSLFSPSKEEARRSSQPPADRDPAPFRAEPTHWCLLVRENGTMEIYQLPDWRLVFLVKNFPVGQRVLVDSSFGQPTTQGEARREEATRQGELPLVKEVLLVALGSRQSRPYLLVHVDQELLIYEAFPHDSQLGQGNLKVRFKKVPHNINFREKKPKPSKKKAEGGGAEEGAGARGRVARFRYFEDIYGYSGVFICGPSPHWLLVTGRGALRLHPMAIDGPVDSFAPFHNVNCPRGFLYFNRQGELRISVLPAYLSYDAPWPVRKIPLRCTAHYVAYHVESKVYAVATSTNTPCARIPRMTGEEKEFETIERDERYIHPQQEAFSIQLISPVSWEAIPNARIELQEWEHVTCMKTVSLRSEETVSGLKGYVAAGTCLMQGEEVTCRGRILIMDVIEVVPEPGQPLTKNKFKVLYEKEQKGPVTALCHCNGHLVSAIGQKIFLWSLRASELTGMAFIDTQLYIHQMISVKNFILAADVMKSISLLRYQEESKTLSLVSRDAKPLEVYSVDFMVDNAQLGFLVSDRDRNLMVYMYLPEAKESFGGMRLLRRADFHVGAHVNTFWRTPCRGATEGLSKKSVVWENKHITWFATLDGGIGLLLPMQEKTYRRLLMLQNALTTMLPHHAGLNPRAFRMLHVDRRTLQNAVRNVLDGELLNRYLYLSTMERSELAKKIGTTPDIILDDLLETDRVTAHF
B2: hFIP1 (protein, UniProt Q6UN15 1-594)
chain: MSAGEVERLVSELSGGTGGDEEEEWLYGGPWDVHVHSDLAKDLDENEVERPEEENASANPPSGIEDETAENGVPKPKVTETEDDSDSDSDDDEDDVHVTIGDIKTGAPQYGSYGTAPVNLNIKTGGRVYGTTGTKVKGVDLDAPGSINGVPLLEVDLDSFEDKPWRKPGADLSDYFNYGFNEDTWKAYCEKQKRIRMGLEVIPVTSTTNKITAEDCTMEVTPGAEIQDGRFNLFKVQQGRTGNSEKETALPSTKAEFTSPPSLFKTGLPPSRNSTSSQSQTSTASRKANSSVGKWQDRYGRAESPDLRRLPGAIDVIGQTITISRVEGRRRANENSNIQVLSERSATEVDNNFSKPPPFFPPGAPPTHLPPPPFLPPPPTVSTAPPLIPPPGFPPPPGAPPPSLIPTIESGHSSGYDSRSARAFPYGNVAFPHLPGSAPSWPSLVDTSKQWDYYARREKDRDRERDRDRERDRDRDRERERTRERERERDHSPTPSVFNSDEERYRYREYAERGYERHRASREKEERHRERRHREKEETRHKSSRSNSRRRHESEEGDSHRRHKHKKSKRSKEGKEAGSEPAPEQESTEATPAE
B3: CPSF-73 (cleavage and polyadenylation specificity factor 73 kilodalton subunit) (protein, UniProt Q9UKF6 1-684)
chain: MSAIPAEESDQLLIRPLGAGQEVGRSCIILEFKGRKIMLDCGIHPGLEGMDALPYIDLIDPAEIDLLLISHFHLDHCGALPWFLQKTSFKGRTFMTHATKAIYRWLLSDYVKVSNISADDMLYTETDLEESMDKIETINFHEVKEVAGIKFWCYHAGHVLGAAMFMIEIAGVKLLYTGDFSRQEDRHLMAAEIPNIKPDILIIESTYGTHIHEKREEREARFCNTVHDIVNRGGRGLIPVFALGRAQELLLILDEYWQNHPELHDIPIYYASSLAKKCMAVYQTYVNAMNDKIRKQININNPFVFKHISNLKSMDHFDDIGPSVVMASPGMMQSGLSRELFESWCTDKRNGVIIAGYCVEGTLAKHIMSEPEEITTMSGQKLPLKMSVDYISFSAHTDYQQTSEFIRALKPPHVILVHGEQNEMARLKAALIREYEDNDEVHIEVHNPRNTEAVTLNFRGEKLAKVMGFLADKKPEQGQRVSGILVKRNFNYHILSPCDLSNYTDLAMSTVKQTQAIPYTGPFNLLCYQLQKLTGDVEELEIQEKPALKVFKNITVIQEPGMVVLEWLANPSNDMYADTVTTVILEVQSNPKIRKGAVQKVSKKLEMHVYSKRLEIMLQDIFGEDCVSVKDDSILSVTVDGKTANLNLETRTVECEEGSEDDESLREMVELAAQRLYEALTPVH

How the values were obtained:
GST-PAPα [1] = biological target: GST-PAPα (UniProt P51003); test: pull-down; GST-Star-PAP or GST-PAPα immobilised on glutathione-sepharose beads, pull-down from HEK 293 cell lysates; buffers with protease inhibitor cocktail, DNase I and RNase A; immunoblot; no competitor added; only the target purified
[2] = biological target: T1, GST-Star-PAP (Speckle targeted PIPKIα regulated poly (A) polymerase); test: as above
GST-PAPα [3] = biological target: GST-PAPα (UniProt P51003); test: pull-down; GST-Star-PAP, GST-PAPα or control GST on glutathione-sepharose beads, pull-down from HEK 293 cell lysates with increasing additions (0, 12.5, 25, 50, 100, 200 nM) of recombinant His-PAPα or His-Star-PAP as competitor; DNase I and RNase A; immunoblot; only the target purified
[4] = biological target: T1, GST-Star-PAP (Speckle targeted PIPKIα regulated poly (A) polymerase); test: as above

| Molecule | binding (GST-PAPα [1]) | binding [2] | binding (GST-PAPα [3]) | binding [4] |
| --- | --- | --- | --- | --- |
| CPSF-30 (cleavage and polyadenylation specificity factor 30 kilodalton subunit) (from UniProt O95639 1-269) | binds | binds | – | – |
| phosphatidyl-inositol-4-phosphate-5-kinase type Iα (PIPKIα) (from UniProt Q99755 1-562) (enzyme) | no binding | binds | – | – |
| B1 | binds | binds | binds | binds |
| B2 | binds | – | binds | no binding |
| B3 | no binding | binds | – | – |
